# Assay results as given in the supplement of paper PMC4967469.
# IC50 is the fitted dose that halves viability relative to control wells, and lower means more sensitive; a fit beyond the top or the lowest dose is shown as a bound at that dose. For AUC the same curve is integrated over the 256-fold range of doses and scaled to a fraction; it is 1 without any effect and falls as sensitivity rises. Any top dose called inferred comes from the curve model; the source does not state it. For part of these data: An entry number marks a drug with two screens in the source, which often give different values.
# Compound: Cc1cc(N2CCOCC2)cc2[nH]c(-c3c(NC[C@@H](O)c4cccc(Cl)c4)cc[nH]c3=O)nc12 [BMS-536924]
# Test: Viability of human cancer cell lines after 72 h of drug (GDSC screen)
# Conditions: top dose 4 µM; screen: GDSC drug entry 1091; top dose inferred
# Experimental: (§1)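 Human cancer cell lines in 384-well plates, medium with 10% serum, drug for 72 h over a 256-fold dose range (nine 2-fold or five 4-fold steps up to the top dose). Adherent lines were fixed and stained with the nucleic acid dye Syto60, suspension lines read with resazurin; signal relative to control wells, capped at 0 and 100%. One two-parameter sigmoid per drug and line, fitted in a mixed model over all curves with the slope shared within a line.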
Cell Line,AUC,IC50
"RERF-LC-MS (lung adenocarcinoma, adherent)",0.887,> 4000 nM
"RERF-LC-Sq1 (lung squamous cell carcinoma, adherent)",0.884,> 4000 nM
"RO82-W-1 (thyroid, adherent)",0.959,> 4000 nM
"RT4 (bladder, adherent)",0.936,> 4000 nM
"RVH-421 (melanoma, adherent)",0.936,> 4000 nM
"SJRH30 (rhabdomyosarcoma, adherent)",0.704,957 nM
"SK-MEL-3 (melanoma, adherent)",0.873,> 4000 nM
"SK-MEL-30 (melanoma, adherent)",0.956,> 4000 nM
"SK-MES-1 (lung squamous cell carcinoma, adherent)",0.958,> 4000 nM
"SK-N-AS (neuroblastoma, adherent)",0.946,> 4000 nM
"SK-N-SH (neuroblastoma, adherent)",0.771,1520 nM
"SNG-M (endometrium, adherent)",0.839,2640 nM
"SNU-387 (liver, adherent)",0.893,> 4000 nM
"SU8686 (pancreas, adherent)",0.984,> 4000 nM
"SW48 (large intestine, adherent)",0.667,725 nM
"SW620 (large intestine, adherent)",0.938,> 4000 nM
"SW948 (large intestine, adherent)",0.94,> 4000 nM
"SW1573 (lung adenocarcinoma, adherent)",0.835,> 4000 nM
"SW1710 (bladder, adherent)",0.956,> 4000 nM
"SW1783 (glioma, adherent)",0.987,> 4000 nM
"T84 (large intestine, adherent)",0.897,> 4000 nM
"TMK-1 (stomach, adherent)",0.792,1940 nM
"TT (thyroid, adherent)",0.822,3640 nM
"UACC-62 (melanoma, adherent)",0.957,> 4000 nM
"UACC-893 (breast, adherent)",0.975,> 4000 nM
"VMRC-RCZ (kidney, adherent)",0.95,> 4000 nM
"WM35 (melanoma, adherent)",0.792,1820 nM
"WM1552C (melanoma, adherent)",0.915,> 4000 nM
"WM-115 (melanoma, adherent)",0.98,> 4000 nM
"huH-1 (liver, adherent)",0.874,> 4000 nM

# Compound: CC(C)=CC[C@@H](O)C1=CC(=O)c2c(O)ccc(O)c2C1=O [Shikonin]
# Test: as above
# Conditions: top dose 16 µM; top dose inferred
# Experimental: as §1
Cell Line,AUC,IC50
"RERF-LC-MS (lung adenocarcinoma, adherent)",0.661,2850 nM
"RERF-LC-Sq1 (lung squamous cell carcinoma, adherent)",0.788,11000 nM
"RO82-W-1 (thyroid, adherent)",0.673,3490 nM
"RT4 (bladder, adherent)",0.695,3640 nM
"RVH-421 (melanoma, adherent)",0.547,1410 nM
"SJRH30 (rhabdomyosarcoma, adherent)",0.323,315 nM
"SK-MEL-3 (melanoma, adherent)",0.612,2150 nM
"SK-MEL-30 (melanoma, adherent)",0.41,558 nM
"SK-MES-1 (lung squamous cell carcinoma, adherent)",0.579,1680 nM
"SK-N-AS (neuroblastoma, adherent)",0.6,1960 nM
"SK-N-SH (neuroblastoma, adherent)",0.374,452 nM
"SNG-M (endometrium, adherent)",0.332,344 nM
"SNU-387 (liver, adherent)",0.478,861 nM
"SU8686 (pancreas, adherent)",0.522,1160 nM
"SW48 (large intestine, adherent)",0.498,986 nM
"SW620 (large intestine, adherent)",0.306,308 nM
"SW948 (large intestine, adherent)",0.63,2700 nM
"SW1573 (lung adenocarcinoma, adherent)",0.361,360 nM
"SW1710 (bladder, adherent)",0.069,< 62.5 nM
"SW1783 (glioma, adherent)",0.498,989 nM
"T84 (large intestine, adherent)",0.742,5010 nM
"TMK-1 (stomach, adherent)",0.548,1360 nM
"TT (thyroid, adherent)",0.611,2280 nM
"UACC-62 (melanoma, adherent)",0.545,1320 nM
"UACC-893 (breast, adherent)",0.933,> 16000 nM
"VMRC-RCZ (kidney, adherent)",0.41,541 nM
"WM35 (melanoma, adherent)",0.441,691 nM
"WM1552C (melanoma, adherent)",0.568,1540 nM
"WM-115 (melanoma, adherent)",0.759,6770 nM
"huH-1 (liver, adherent)",0.79,9040 nM

# Compound: NC(=O)c1ccc(N(C(N)=O)c2c(F)cccc2F)nc1-c1ccc(F)cc1F [VX-702]
# Test: as above
# Conditions: top dose 2 µM; top dose inferred
# Experimental: as §1
Cell Line,AUC,IC50
"RERF-LC-MS (lung adenocarcinoma, adherent)",0.987,> 2000 nM
"RERF-LC-Sq1 (lung squamous cell carcinoma, adherent)",0.963,> 2000 nM
"RO82-W-1 (thyroid, adherent)",0.98,> 2000 nM
"RT4 (bladder, adherent)",0.972,> 2000 nM
"RVH-421 (melanoma, adherent)",0.977,> 2000 nM
"SJRH30 (rhabdomyosarcoma, adherent)",0.973,> 2000 nM
"SK-MEL-3 (melanoma, adherent)",0.975,> 2000 nM
"SK-MEL-30 (melanoma, adherent)",0.984,> 2000 nM
"SK-MES-1 (lung squamous cell carcinoma, adherent)",0.985,> 2000 nM
"SK-N-AS (neuroblastoma, adherent)",0.979,> 2000 nM
"SK-N-SH (neuroblastoma, adherent)",0.987,> 2000 nM
"SNG-M (endometrium, adherent)",0.974,> 2000 nM
"SNU-387 (liver, adherent)",0.984,> 2000 nM
"SU8686 (pancreas, adherent)",0.983,> 2000 nM
"SW48 (large intestine, adherent)",0.981,> 2000 nM
"SW620 (large intestine, adherent)",0.984,> 2000 nM
"SW948 (large intestine, adherent)",0.982,> 2000 nM
"SW1573 (lung adenocarcinoma, adherent)",0.96,> 2000 nM
"SW1710 (bladder, adherent)",0.984,> 2000 nM
"SW1783 (glioma, adherent)",0.99,> 2000 nM
"T84 (large intestine, adherent)",0.989,> 2000 nM
"TMK-1 (stomach, adherent)",0.958,> 2000 nM
"TT (thyroid, adherent)",0.978,> 2000 nM
"UACC-62 (melanoma, adherent)",0.988,> 2000 nM
"UACC-893 (breast, adherent)",0.982,> 2000 nM
"VMRC-RCZ (kidney, adherent)",0.953,> 2000 nM
"WM35 (melanoma, adherent)",0.975,> 2000 nM
"WM1552C (melanoma, adherent)",0.988,> 2000 nM
"WM-115 (melanoma, adherent)",0.952,> 2000 nM
"huH-1 (liver, adherent)",0.956,> 2000 nM

# Compound: O=C1NC(=O)c2c1c(-c1ccccc1Cl)cc1[nH]c3ccc(O)cc3c21 [Wee1 inhibitor 681640]
# Test: as above
# Conditions: top dose 2 µM; top dose inferred
# Experimental: as §1
Cell Line,AUC,IC50
"RERF-LC-MS (lung adenocarcinoma, adherent)",0.942,> 2000 nM
"RERF-LC-Sq1 (lung squamous cell carcinoma, adherent)",0.966,> 2000 nM
"RO82-W-1 (thyroid, adherent)",0.889,> 2000 nM
"RT4 (bladder, adherent)",0.987,> 2000 nM
"RVH-421 (melanoma, adherent)",0.924,> 2000 nM
"SJRH30 (rhabdomyosarcoma, adherent)",0.933,> 2000 nM
"SK-MEL-3 (melanoma, adherent)",0.978,> 2000 nM
"SK-MEL-30 (melanoma, adherent)",0.897,> 2000 nM
"SK-MES-1 (lung squamous cell carcinoma, adherent)",0.868,> 2000 nM
"SK-N-AS (neuroblastoma, adherent)",0.967,> 2000 nM
"SK-N-SH (neuroblastoma, adherent)",0.92,> 2000 nM
"SNG-M (endometrium, adherent)",0.864,1690 nM
"SNU-387 (liver, adherent)",0.974,> 2000 nM
"SU8686 (pancreas, adherent)",0.96,> 2000 nM
"SW48 (large intestine, adherent)",0.929,> 2000 nM
"SW620 (large intestine, adherent)",0.99,> 2000 nM
"SW948 (large intestine, adherent)",0.982,> 2000 nM
"SW1573 (lung adenocarcinoma, adherent)",0.897,> 2000 nM
"SW1710 (bladder, adherent)",0.912,> 2000 nM
"SW1783 (glioma, adherent)",0.948,> 2000 nM
"T84 (large intestine, adherent)",0.987,> 2000 nM
"TMK-1 (stomach, adherent)",0.985,> 2000 nM
"TT (thyroid, adherent)",0.961,> 2000 nM
"UACC-62 (melanoma, adherent)",0.885,> 2000 nM
"UACC-893 (breast, adherent)",0.969,> 2000 nM
"VMRC-RCZ (kidney, adherent)",0.959,> 2000 nM
"WM35 (melanoma, adherent)",0.813,1090 nM
"WM1552C (melanoma, adherent)",0.968,> 2000 nM
"WM-115 (melanoma, adherent)",0.979,> 2000 nM
"huH-1 (liver, adherent)",0.928,> 2000 nM

# Compound: Cc1ccc(-n2nc(C(C)(C)C)cc2NC(=O)Nc2ccc(OCCN3CCOCC3)c3ccccc23)cc1 [BIRB 0796]
# Test: as above
# Conditions: top dose 10 µM; top dose inferred
# Experimental: as §1
Cell Line,AUC,IC50
"RERF-LC-MS (lung adenocarcinoma, adherent)",0.981,> 10000 nM
"RERF-LC-Sq1 (lung squamous cell carcinoma, adherent)",0.929,> 10000 nM
"RO82-W-1 (thyroid, adherent)",0.982,> 10000 nM
"RT4 (bladder, adherent)",0.954,> 10000 nM
"RVH-421 (melanoma, adherent)",0.978,> 10000 nM
"SJRH30 (rhabdomyosarcoma, adherent)",0.952,> 10000 nM
"SK-MEL-3 (melanoma, adherent)",0.96,> 10000 nM
"SK-MEL-30 (melanoma, adherent)",0.967,> 10000 nM
"SK-MES-1 (lung squamous cell carcinoma, adherent)",0.983,> 10000 nM
"SK-N-AS (neuroblastoma, adherent)",0.912,> 10000 nM
"SK-N-SH (neuroblastoma, adherent)",0.968,> 10000 nM
"SNG-M (endometrium, adherent)",0.946,> 10000 nM
"SNU-387 (liver, adherent)",0.918,> 10000 nM
"SU8686 (pancreas, adherent)",0.918,> 10000 nM
"SW48 (large intestine, adherent)",0.982,> 10000 nM
